Data from the RNAGym collection of RNA variant scans (doi:10.7554/elife.90254).
The source gives no read counts; variants with many changes may rest on few reads.

B1: LINE1-mini (parent)
chain: GGCAGAGCUCAACACAGCGUGGCAAAGUGGCUGUGGCUAGACUGCC

Variants of: B1
Experiment: self-cleavage, relative activity (ratio to wild type); higher = more cleavage; in vitro, sequencing; the parent is a self-cleaving ribozyme

Row | Variant | self-cleavage
1 | GGCAGAGCUCAACACAGAGUGGCAAAGUGGCUUUCGCUAGACUGCC | 0.02
2 | AGCAGAGCUGUACACAUCGUGGCAAAGUGGCUGUGGAUAGACUGCC | 0.01
3 | GGCAGAGCUGAACACACCUUGGCAAAGUGGCUGUGGCUAGACUGCC | 0
4 | GGCAGAUCUCAACACAGCGUGGCAAAGUGGCUGUAGGUCGACUGCC | 0.24
5 | GGCAGAGCUCAACACAUCGUGGCAAAGAGGCUGUUGCUAGACUGCC | 0.04
6 | GGCAAAGCUCAACACAGCGUGGAAAAGUGGCUGUGGCUACACUGCC | 0.03
7 | GGCAGAGCUCGACACAGUGUGGCAAAGUGGGCGUGGCUAGACUGCC | 0.04
8 | AACAGCGCUCAACACAGCGUGGCAAAGUGGCUGUGGCUAGACUGCC | 0.39
9 | GGCAGAGCUCAACACAGCGGGGCAGAGUGGCUGUAGAUAAACUGCC | 0.06
10 | GGCAGAGCUCAACACAGGGUGAAAAAGUGGCUGCGGCUAGACGGCG | 0.03
11 | GGCAGUGCUCAACACAGCGUAGCAAAGUGGCUGUGCCUAGACUGCU | 0.08
12 | GGCAGAGCUCAACACAGCGUGGCAAAGAUGCUGUGGCUAGGCUGCC | 0.99
13 | GGGAGAGCUCAACACAGCCUGGCAAAGUGGCUGUAGCUAGACUGCC | 0.08
14 | GGCAGAGCUCAACACUGCGUGGCAAAGUGGCUGUGGAUACACUGCC | 0.06
15 | GGCAGACCUCAACACAGCGUGGCAUAGUGGAUGUGGCUAGACUGCC | 0.03
16 | GGCAGAGCUCAACACAGAGUGGCAAAGUCGCUGUGGCUAGAGUGCC | 0.05
17 | GGCAUAGCUCAACACAGCGUGGCAAAGUGGGUGUGGCUAGACUACC | 0.03
18 | GGAAGAGCUCAACUAAGCGUGGCAAAGUGGCUGUGGCUAGACUGCC | 0.41
19 | GGCAGAGCUCAACACAUAGUGUCAAAGUGGCUGUGGCUAGACUGCC | 0.07
20 | GGUAGUGCUCAACACAGCGUGGCAAAAUGGCUUUGGCUAGACUGCC | 0.24
21 | GGCUGAGCUCAACACAGCGUGGCAAAGUGACUGUGUCUAGACUGCC | 1
22 | GGCAGAGCUCAAUACAGCGCGGCAAAGUGGCUGUGGCAAGACUGCC | 0.04
23 | GGCAGAGCGCACCACAGCGUGGCGAAGUGGCUGUGGUUAGACUGCC | 0

Row | Variant | self-cleavage
24 | GGCCGAGGUCAACACAGCGUGGCAAAGUGGCAGUGUCUAGACUGCC | 0.04
25 | GGCAAAGCUCAACACAGCGUGGCAAAGUGGCUUUGGCUAGACUGCA | 0.05
26 | GGCAGAGCUCAACACAGCGUGGCAAAGUGGCUGCGUCUAGACUGCU | 0.07
27 | GGCAGCGGUCAACACCGCGUGGCAAAGUGGCUGUGGCUACACUGCC | 0.07
28 | GGCAGAGCUCAACACAGCGUGGGAAAGUGGCUGUGUCUUGACUGCC | 0.1
29 | GGCUGAGCUCAACACAGCUCGUCAAAGUGACUGUGGCUAGACUGCC | 0.09
30 | GGCAUAGCUCAACACAGCGUAGCAAAGUGGCUGUGGCUGGACUGCC | 0.12
31 | GGCAGAGUUCAACACAGCGUGCCAAAUUGGCUGUGGCUAGACUGCC | 0.26
32 | GGCAGAGCUCAAAACAGCGUGGCAACGUGGCUGUGGCUAGUCUGCC | 0.12
33 | GGCAGAGCUCAACACACAGUGGCAAAGUGGCUGUUGCUAGACUGCC | 0.02
34 | GGCAGAGCUAACCACAGCGUGGCAAAGUGACUGUGGCUCGACUGCC | 0
35 | AGCAGAGCUCAACGCAGCGUGGCACAGUGGCUGUGGCUAGACUGCC | 0.2
36 | AGCAGAGCUCAACACAGCGUGGUAAAGUGGCUGUGGCUAGACUUCG | 0.06
37 | GGCAGAGCUCAACACAGUGUGGCAAAGUAGCUGUGGGUAGACUGCC | 0.04
38 | GGCAGAGCUCAACACAGCGCGGCAAAGUGUCUGUGGCUAGACUGUG | 0.14
39 | GGCAGAGCUCAACACAGCGUGGGAACGGGGCUGUGUCUAGACUGCC | 0.13
40 | GCCAGAGCUCAACAAAGCGUGGCAAAGUGGCUGUUGCUAGACUGCC | 0.05
41 | GGCAGAGCUCAACACAUCGUGGCAAAUUGGCUGUGCCUAGACUGCC | 0.01
42 | GGCAGAGCUCAACCCAGCGUGGCAAAGUGGCUGUGGCUAGGCGGCC | 0.19
43 | GGUAGAGCUCAACACAGCGUGGCAAAUUGUCUGUGGCUAGACUGCC | 0.55
44 | GUCAGAGCUCAACACAGGGUGGCAAAGUUGCUGUGGCUAGACUGCC | 0.13
45 | GGCAGCGCUCAACACUGCGUGGCAAAGUGGCUCUGUCUAGACUGCC | 0.03
46 | GGCAGAGCUAAAAACAGCGUGGGAAAGUGGCUGUGGCUAGACUGCC | 0.02

Row | Variant | self-cleavage
47 | GCCAGAGCUCCACACAGCGUGGCAAAGGGGCUGUGGCUAGACUGCC | 0.02
48 | GGCCUAGCUCAACACAGCGAGGCAAAGUGGCUGUGGCUAGACUGCC | 0.06
49 | GGCAGAGCUCCACACAGCGUGGCAAACUGGCUGUGGCUAGACUGCU | 0.09
50 | GGCAGAGAUCAACACAGCGUGACAAUGGGGCUGUGGCUAGACGGCC | 0.61
51 | GGAAGAGCUCAACACAGCGUGGCAAAGUGGGUGUGGCUAGCCUGCA | 0.09
52 | GGCAGAGCUCAACACAGCGCGGCAAGGUGGCGGGGCCUAGACUGCC | 0.01
53 | GGCAGAGCUGAACACAGCGUGGCAAAGUGGCUGGGGCUAGACUGAC | 0.06
54 | GGCAGAGCAGAACACAGCUAGGCAAAGUGGCUGUGGCUUGAGUGCC | 0.02
55 | GGCAGAGCUCAACGCAGCGUGGCUAAGUGGCUGUGGGUAGACUGCC | 0.01
56 | GGCAGAGCUCAACGCAGCGUGGCAAAAUGGCUGUGCCUAGACUGCC | 0.06
57 | GGGAGAGUCCAACACAGCGUGGCAAAGUGGCUGUGGCUAGACUGCC | 0.03
58 | GGCAGAGCUCAACACAUCGUGGCAAAGUGGGUGUGGGUAGACUGCC | 0.02
59 | GGCAGAGCUAAGCACAGCGUGGCAAAGUGUCUGUGGCUAGACUGCC | 0
60 | GGCAGAGCUAAACACAGCGUGGCAGAGUGGCUGUGACUAGACUGCC | 0.02
61 | GGCAGAGCUCAAUACAGCGUAGCAAAGCGGAUGUGGCUAGACUGCC | 0.07
62 | GGCAGACCUCAACACAGCGUGGUAAAGUGGCUGUGGCUAGACAGCC | 0.12
63 | GGCUGAGCUAAACACAGCGUGGCAAAGUGGUUGUGGCUAGAAUGCC | 0.05
64 | GGCAUUGCUCAACACAGCGUGGCAAACUGGCUGCGACUAGACUGCC | 0.03
65 | UGCAGAGCUCAAAACAGUGUGGCAAAGUGGCUGUGGCUAGACUGCC | 0.01
66 | GACAGAGCUCAACACAGCGAGGCAAAGUUGCAGUGGCAAGACUGCA | 0.1
67 | GGCAGAGCUCAACACACCGUGGCAAAGUGGCUCUGGAUAGACUGCC | 0.01
68 | GGCGUAGCUCAACACAGCGUGGCAAAGUGGCUCUGGCUAGACUGCG | 0.02
69 | GGCAGAGCUCAACUCAUCGUGGCAAAGUGCCUGUGGCUAGACUGCA | 0.06

Row | Variant | self-cleavage
70 | GGCAGAGCUCAACACACCGUGGCAAAGUGGCUGUGGCCAGACAGCC | 0.08
71 | GGCAGAGCUCAAGACAGCGUGGCAAACUGGAUGUGGCUAGGCUUCC | 0
72 | UGCAGAGCUCAACACAGCGUGGCAAAUUAGCUGUGGCUAGACUGCC | 0.19
73 | GGCAGAGCUCAACACAGCGUGGCCAAGUGGCUGUGGUUAGACCGCC | 0.26
74 | GGAAGAGCUCAACACAGCGUGGGAAAGUGGGUGUGGCUAGACUGCC | 0.05
75 | GGCAGAGCUUAACACAGCGUGGCAAAGAAGCUGUAGCUAGGCUGCC | 0.02
76 | GGCAGAGCUCAACACAGCGUGGCAAAUAGGCUGUGGCUAGACUGAC | 0.71
77 | GGCAGAGUUCAACAAAGCGUGGCCAAGUGACUGUGGAUAGACUGCC | 0.01
78 | GGCAGACCUCAACACACCGUGUCAAAGUGGCUGUGGCUAGACUGCC | 0.04
79 | GGCAUAGCUCAACACGGCGUGGCUAAGUGGCUGUGGCUAGACUUCC | 0.03
80 | GACAGAGCUCAACAGAGCGUGGCAAAGUGGCUAUGGCUAGACUGCC | 0.05
81 | GUCGGAGAUCAACACAGCGUGGCAAAGUGGCUGUGGCUAGGCUGCC | 0.35
82 | GGCAGAGCUCAACAAAGCGUGGCAACGUGGCUGUGACUAGACUGCC | 0.15
83 | GGCAGAUCUCAACACAUCGUGGCAGAGUGGCUGUGGCUAGACUGCC | 0.08
84 | GGCAGAGCACUAGACAGCGCGCCAAAGUGGCUGUGGCUAGACUACC | 0.02
85 | GCCAGAGCUCAACACAGCAUGGCAAAGUGGGUGUGGCUAGACUGCC | 0.05
86 | GGCAGAGCUAAACACAGCAUGGCAAAGGGGCUGUGGCUUGACUGCC | 0.15
87 | GGCACAGCUCAACACAGCGUGGUAACGUUGCUGUGUCUAGACUGCU | 0.03
88 | GGCAGAGCUCAACACAUCGUGGCAAAGUGCCUGUGUCUAGACUGCC | 0.08
89 | GGCAGAGAUCAACGCAGCGUGGCAAAGUGGCUGUGGCUAGACUGGC | 0.28
90 | GGCAGAGCUCAAGACGGGGCGUCAAAGUGGAUGUGGCUAGAAUGCC | 0.01
91 | GUCAAAGCUCAACUCAGCGUGGCAAAGUGGCUGUGGCUAGACUGCC | 0.05
92 | GGCAGAGACCAACACAGCGUGGCAAAGUGGCUGUGGCUAGACUGAC | 0.08

Row | Variant | self-cleavage
93 | GGCAGAGCUUAAGACUGCGUGGCAAAGUGUCUGUGGCUAGACUGCC | 0.03
94 | GGCAGAGCUCAACACAGGGUCGCAAAGUGGCUGUGGCUAGCCUGCC | 0.01
95 | GGCAGAGCGCAACACAGCGUGGCAAAGUGGCUGUGGCGACACUGCC | 0.02
96 | ACCAGAGCUCAACACAGCGUGGCAACGUGGCUGUGGCUAGACUGCC | 0.32
97 | GACAGAGCUCAACAGAGCGUAGCAAAGGGGCUUUGGCGAGACUGCC | 0
98 | GGCAGAGCUCAUCACAGCGUCGCAAAUUGGCUGUGGCUAGUCUGCC | 0.08
99 | GGCAGGGAUCAAUACAGCGUGGCAAAGUGGCUGUGGAUUGACUGCU | 0.07
100 | GGCAUAGCUCAACAAAGCGCGGCAAAGUGGCUGUGGCUAGACUCCC | 0.02
101 | GGCAGAACUCAACACAGAGUCGCAAAGUGGCUGUGGCUAGACUGCC | 0.08
102 | GGCUGAGCUCAACAUAGCGUGGCAAAGUGGCUGUGUCUAGACUGCU | 0.05
103 | GGCAGAGCUCAACACAGUGAGGCUAAGUGGCUGUGGCUAGACUGCC | 1.4
104 | GGCAGAGGUCACAACAGCGUGGCAAAGUGGCCGUGGCUUGACUGCC | 0.01
105 | GGCAGAGCUCCACACAGCCUGCCAAAGUGGCUGUGGCUAGACUGCC | 0.01
106 | GGCAGAGCUCGACACAGCGUGGUAAAGUGGCUGUGGCUGGACUGCC | 0.01
107 | GGCAGAGCUCAAUACAGCGUUGCAAAGUGGCUGUGCCUAGACUGCC | 0.47
108 | GGCAGAGCUCAACACAGCGUGGCAAAGUGACUGUGUCUAUACUGCC | 0.06
109 | GGCAGAGCUCAACAAAGCGUGGCAUAGUGGCUGUUGCUAGACUGCC | 0.42
110 | GGCAGAGCUCAACAGUGCGUGGCAAAGUGGCUGUGGCUAUACUGCC | 0.08
111 | GGCAGAGCUCAACACAGCGUGGCCAAGUGGCUUUAGCUAGACAGGC | 0.06
112 | GGCAGAGCUCAACACAGCGUGGCACAGUGGCUGUGUCUAGAAUGAC | 0.04
